# Among all 370,000 compounds or so, about 150 (0.041%) were called active. The inconclusive results got no clear call from the source; some entries with a clear call stand among them for comparison. Calls come from the whole dose curve; as a rule, active = well fitted inhibition curve with a large enough effect; inconclusive = small, poorly fitted or top-dose-only effect; inactive = flat fitted curve, though single readings scatter. No potency is given beside an inconclusive call; the fits are too rough.
# Target: Beta-lactamase (Escherichia coli (strain K12)) (UniProt P00811)
# Test: qHTS Inhibitors of AmpC Beta-Lactamase (assay with detergent); note: nearly all actives have a fitted effect of over 25% in size;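 for activity change, negative = inhibition: 0% = no-compound wells and -100% = no-enzyme wells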
# Conditions: AmpC hydrolysis of nitrocefin, absorbance 480 nm, 0.01% Triton; activity change, negative = inhibition: at 114 µM (top of the series)
# Method in brief: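 AmpC (5.3 nM in the dispensed reagent) in 20 mM phosphate pH 7.0 with 0.01% (detergent screen) or 0.0001% Triton X-100 was preincubated with compounds for 15 min at room temperature. Nitrocefin was then added from an 800 uM solution, and hydrolysis was followed at 480 nm.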
# Potency is the fitted concentration of half-maximal effect; tags give direction and shape of the fitted curve.
# Chain of UniProt P00811 (P00811 whole entry, looked up): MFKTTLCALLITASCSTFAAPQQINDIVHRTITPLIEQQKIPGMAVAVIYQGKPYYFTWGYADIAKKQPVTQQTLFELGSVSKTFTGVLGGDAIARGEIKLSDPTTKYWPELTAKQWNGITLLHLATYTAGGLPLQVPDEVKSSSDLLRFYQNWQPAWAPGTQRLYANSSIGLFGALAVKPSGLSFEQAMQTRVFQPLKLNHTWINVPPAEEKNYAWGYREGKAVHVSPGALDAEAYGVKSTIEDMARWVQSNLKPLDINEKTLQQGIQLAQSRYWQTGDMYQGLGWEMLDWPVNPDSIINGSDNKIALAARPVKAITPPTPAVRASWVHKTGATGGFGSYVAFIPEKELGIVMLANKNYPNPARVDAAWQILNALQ
SMILES,Potency,"activity change, negative = inhibition"
COc1ccc(C(=O)Nc2cc3c4c(c2)C(C)C(=O)N4CCC3)c(OC)c1 (centres undefined),"inconclusive [inhibitor, partial curve, poor fit]",
Cc1ccc(C)c(NC(=S)N2CCCC2)c1,"inconclusive [inhibitor, full curve]",
O=C(NC1CCN(C(=O)c2cccs2)CC1)c1ccccc1,"inconclusive [inhibitor, full curve, poor fit]",
NC(=O)C(c1ccc(Sc2ccccc2)nn1)c1ccc(Cl)cc1Cl (centres undefined),"inconclusive [inhibitor, full curve, poor fit]",
Nc1c(C(=O)CSc2nnc(Cc3ccccc3)o2)c(=O)[nH]c(=O)n1C1CC1,,inactive: -5.87%
COc1ccc(C(=O)Nc2ccc(Nc3ccccc3)cc2)cc1[N+](=O)[O-],"inconclusive [inhibitor, full curve, poor fit]",
COC(=O)c1ccc2c(=O)[nH]c(COC(=O)CCC(=O)c3ccc(Cl)cc3)nc2c1,"inconclusive [inhibitor, full curve, poor fit]",
Nc1ncnc2c1ncn2[C@H]1C[C@H](O)[C@@H](CO)O1,"inconclusive [inhibitor, full curve, poor fit]",
Cc1ccc(C(=O)c2ccc(C(F)(F)F)cc2)cc1,"inconclusive [inhibitor, single point]",
CCOC(=O)CSCC(=O)Nc1nnc(-c2cccc([N+](=O)[O-])c2)s1,"inconclusive [inhibitor, full curve, poor fit]",
CN(CC(=O)Nc1ccccc1C(F)(F)F)C(=O)c1ccc(N2C(=O)CCC2=O)cc1,"inconclusive [inhibitor, full curve, poor fit]",
CCn1c(CNC(=O)Cc2ccc(OC)cc2)nnc1SCC(=O)c1ccccc1,"inconclusive [inhibitor, single point]",
CCNC(=O)c1c(NC(=O)Cc2coc3cc(C)cc(C)c23)sc2c1CCCC2,,inactive: 14.7%
CCCCn1c(N)c(N(CCC(C)C)C(=O)COC(=O)c2ccco2)c(=O)[nH]c1=O,"inconclusive [inhibitor, full curve, poor fit]",
CCOc1cc(/C=N/NC(N)=S)cc(Br)c1OCc1ccccc1C,,inactive: -2.74%
CCOC(=O)C1CCN(C(=O)c2cc(OCC)c(OCC)c(OCC)c2)CC1,"inconclusive [inhibitor, full curve, poor fit]",
Cc1ccccc1OCCNC(=O)CSc1ccc(C(F)(F)F)cc1[N+](=O)[O-],"inconclusive [inhibitor, full curve, poor fit]",
CC(C)OC(=O)CC12CN(C)CC(CC(=O)OC(C)C)(CN(C)C1)C2=O,"inconclusive [inhibitor, partial curve, poor fit]",
CCOc1ccc2[nH]cc(S(=O)(=O)c3ccc(F)cc3)c(=O)c2c1,"inconclusive [inhibitor, partial curve, poor fit]",
CCn1cc(C(=O)Nc2ccc(NC(=O)c3ccco3)cc2)c(=O)c2ccc(C)nc21,"inconclusive [inhibitor, full curve, poor fit]",
CN1CCN(CC#CCC(O)(c2ccccc2)C2CCCC2)CC1 (centres undefined),"inconclusive [inhibitor, full curve, poor fit]",
O=C(Nc1cccc(S(=O)(=O)N2CCCCC2)c1)c1ccc(S(=O)(=O)C(F)F)cc1,,inactive: -14%

SMILES,Potency,"activity change, negative = inhibition"
C/C(N)=C(/C#N)C(=O)CSc1nc2scc(-c3ccccc3)c2c(=O)n1C,"inconclusive [inhibitor, partial curve, poor fit]",
CC(=O)Oc1ccc2c(c1)cc(C)n2C,"inconclusive [inhibitor, full curve]",
CC(C)COC(=O)C1C2C=CC3(CN(C4CCCC4)C(=O)C13)O2 (centres undefined),"inconclusive [inhibitor, full curve]",
Cc1ccc(NC(=S)N(Cc2cccs2)Cc2cc3cccc(C)c3[nH]c2=O)cc1,,inactive: -10.6%
C[C@@]12C(=O)N(CC3CC3)CC(=O)N1[C@H](/C=C/c1ccccc1)[C@@H]1C(=O)N(c3ccccc3)C(=O)[C@@H]12,"inconclusive [inhibitor, full curve, poor fit]",
CCCCCN=C(C)c1c(O)c2ccccc2oc1=O,"inconclusive [inhibitor, partial curve]",
O=C(COCC(=O)N/N=C/c1ccccc1F)N/N=C/c1ccccc1F,"inconclusive [inhibitor, partial curve, poor fit]",
COc1ccc(N2CCN(S(=O)(=O)CCNC(=O)COc3ccccc3OC)CC2)cc1,"inconclusive [inhibitor, full curve, poor fit]",
O=C1c2ccccc2C(=O)N1CCOCCN1C(=O)c2ccccc2C1=O,"inconclusive [inhibitor, full curve, poor fit]",
Cc1cc(C)n2cc(CSc3nncn3C)nc2n1,"inconclusive [inhibitor, full curve, poor fit]",
O=C(NCCCn1ccnc1)C(F)(F)C(F)(F)C(=O)NCCCn1ccnc1,"inconclusive [inhibitor, full curve, poor fit]",
CC1CCN(S(=O)(=O)c2cccc(C(=O)N3CCN(c4ccc(F)cc4)CC3)c2)CC1,,inactive: 8.64%
Brc1ccc2ncnc(NCc3ccccc3)c2c1,,inactive: -7.17%
CCCCS(=O)CC(COCc1ccccc1)OC(=O)CSc1nc(C)cc(C)n1 (centres undefined),"inconclusive [inhibitor, full curve, poor fit]",
O=C(Nc1ccccc1Cl)C1CC(=O)N(Cc2ccco2)C1 (centres undefined),"inconclusive [inhibitor, full curve, poor fit]",
CCn1nc(C)c(/C=N/NC(=O)Cn2nc(C)cc2C)c1C,,inactive: -10.1%
CC(C)COC(=O)n1c(=O)oc2cc(S(=O)(=O)N3CCCCC3)ccc21,"inconclusive [inhibitor, full curve, poor fit]",
O=C(CN1CCN(c2cnn(-c3ccccc3)c(=O)c2Cl)CC1)NC1CCS(=O)(=O)C1 (centres undefined),"inconclusive [inhibitor, full curve, poor fit]",
CCn1c(CNC(=O)C23CC4CC(CC(C4)C2)C3)nnc1SCC(=O)Nc1nnc(C)s1,,inactive: -5.37%
CCOC(=O)c1sc2ncn(CC(=O)Nc3cc(C)on3)c(=O)c2c1C,,inactive: -19%
CSC(=Nc1ccc(Cl)cc1)N[n+]1ccccc1,"inconclusive [inhibitor, partial curve]",
Cc1nc(SCC(=O)c2c[nH]c3ccccc23)n[nH]1,,inactive: 0.734%

SMILES,Potency,"activity change, negative = inhibition"
CC(OC(=O)c1ccccc1NCCO)C(=O)NC1CCCCC1C (centres undefined),"inconclusive [inhibitor, partial curve, poor fit]",
CN1CCC(N(C)CC(O)c2ccccc2)CC1 (centres undefined),,inactive: -5.7%
CCCNC(=O)c1ccc(N2CC3CC(C2)c2cccc(=O)n2C3)c(NC(=O)Nc2ccc(CC)cc2)c1 (centres undefined),,inactive: 1.34%
Cc1cccc(N=C2NC(=O)/C(=C\c3cccs3)S2)c1,"inconclusive [inhibitor, full curve]",
O=C(Nc1cnn(Cc2ccc(Cl)cc2)c1)c1ccc([N+](=O)[O-])cc1,"inconclusive [inhibitor, partial curve, poor fit]",
CC1CCN(S(=O)(=O)c2ccc3c(c2)N(CC(=O)NCCc2ccccc2)C(=O)CO3)CC1,,inactive: 15.2%
Nc1nc(F)cc(N2CCCCCC2)n1,"inconclusive [inhibitor, full curve, poor fit]",
CCCSC1=N/C(=C\c2ccc3c(c2)OCO3)C(=O)S1,"inconclusive [inhibitor, full curve, poor fit]",
CC(=O)NC(CCS(C)(=O)=O)C(=O)Nc1ccc2c(c1)OCCO2 (centres undefined),,inactive: 3.55%
CC(C)CC(COCc1cccc(C(F)(F)F)c1)N1CCN(C(=O)c2cccc(C(F)(F)F)c2)CCC1=O (centres undefined),"inconclusive [inhibitor, partial curve, poor fit]",
CCN(CC)CCNC(=O)Cn1cnc2sc(C)c(S(=O)(=O)N3CCOCC3)c2c1=O,"inconclusive [inhibitor, full curve]",
O=C(Cc1ccc(F)cc1)N1CCC(CC2CC(c3cccc(Br)c3)=NO2)(C(=O)NCC2CCCCC2)CC1 (centres undefined),"inconclusive [inhibitor, full curve, poor fit]",
C=C(C)COc1ccc(C2NC(=O)c3ccccc3O2)cc1OCC (centres undefined),"inconclusive [inhibitor, partial curve, poor fit]",
Cc1cc(C)cc(NC(=O)CSc2nc(N)c(NC(=O)c3ccc(Br)o3)c(=O)[nH]2)c1,"inconclusive [inhibitor, full curve, poor fit]",
CC1CCC(NC(=O)c2cccc(S(=O)(=O)N3CCN(c4ccccc4)CC3)c2)CC1 (centres undefined),,inactive: -13.9%
Cc1ccc(C)c(OCCn2c(CCNC(=O)C3CCCCC3)nc3ccccc32)c1,,inactive: 0.614%
COc1ccc(C2=NNC(=Nc3cc(S(=O)(=O)N(C)C)ccc3C)SC2)c(OC)c1,,inactive: 0.634%
O=C1CC(N2CCCCC2)C(=O)N1c1ccccc1 (centres undefined),"inconclusive [inhibitor, full curve, poor fit]",
CNC(=O)C(=O)N/N=C/c1cccnc1,"inconclusive [inhibitor, full curve, poor fit]",
Cc1cccc(NC(=O)c2ccc(S(=O)(=O)N(C)C)cc2)n1,"inconclusive [inhibitor, full curve, poor fit]",

# Reference: PubChem BioAssay AID485294 (National Center for Advancing Translational Sciences (NCATS), 2010)
